Common to all, as to assay: cell viability relative to vehicle (% of vehicle); basal-like triple-negative breast cancer lines; higher = less cytotoxic
What all share (settings): 10 µM; 72 h

The subject of test [1] is HCC-1143.
The subject of test [2] is HCC-1187.
Test [3] concerns MDA-468.
The subject of test [4] is SUM-149.

The structures appear in SMILES notation. The list shows a part of the results. Many values rest on one well or one pass, so single values are uncertain.
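Further: stably firefly luciferase-GFP labeled cells in 96-well plates, viability read as luciferase photon flux after d-luciferin addition, treated wells normalized to vehicle wells, single-dose high-throughput screen.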

For `COc1cc(C(=O)O)ccc1NC(=O)C1NC(CC(C)(C)C)C(C#N)(c2ccc(Cl)cc2F)C1c1cccc(Cl)c1F` (stereo unspecified), the cell viability in test [1] amounted to 117; in test [2], 76.6; in test [3], 95.4; in test [4], 109.

As for `OCC(O)C(O)C(O)C(O)CO` (stereo unspecified) [Sorbitol], the cell viability came to 78.8 in test [1], 74 in test [2], 96.5 in test [3] and 106 in test [4].

As to `Nc1c(CC(=O)[O-])cccc1C(=O)c1ccccc1.O.[Na+]` [Amfenac Sodium Monohydrate], the cell viability in test [1] stood at 77.6; in test [2] it was 79.2; in test [3], 91.5; in test [4], 102.

On to `Cc1cnc(C(=O)O)c[n+]1[O-]` [Acipimox], for which the cell viability in test [1] amounted to 82.4; in test [2] it was 104; in test [3], 88.4; in test [4], 87.

As for `COc1c(C)c2c(c(O)c1CC=C(C)CCC(=O)OCCN1CCOCC1)C(=O)OC2` [Mycophenolate Mofetil], the cell viability in test [1] turned out to be 79.8; in test [2], 46.7; in test [3], 61.6; in test [4], 56.3.

As for `NCC1CCC(C(=O)O)CC1` (stereo unspecified) [Tranexamic Acid], the cell viability in test [1] turned out to be 89.4; in test [2], 110; in test [3] it was 118; in test [4], 108.

Regarding `NC(CC(=O)N1CCn2c(nnc2C(F)(F)F)C1)Cc1cc(F)c(F)cc1F.O.O=P(=O)OO.[HH]` (stereo unspecified) [Sitagliptin phosphate monohydrate], the cell viability stood at 101 in test [1], 105 in test [2], 96.7 in test [3] and 123 in test [4].

Consider `CN(C)CCc1c[nH]c2ccc(CC3COC(=O)N3)cc12` (stereo unspecified) [Zolmitriptan], for which the cell viability in test [1] is 72.6; in test [2] it was 97.5; in test [3], 119; in test [4] it was 106.

Regarding `CC1(C)SC2C(NC(=O)C(NC(=O)N3CCNC3=O)c3ccccc3)C(=O)N2C1C(=O)[O-].[Na+]` (stereo unspecified) [Azlocillin sodium salt], the cell viability in test [1] amounted to 70.4; in test [2], 77.4; in test [3] it was 104; in test [4], 137.
